Measured values reported in PMC4336329 (PLoS ONE, 2015).
Hit rate of the full screen: of about 310,000 compounds, about 2,200 (0.71%) showed an effect of 50% or more. The effect is printed as a negative number. This is one part of the list.

These molecules were tested against human ether-à-go-go-related gene (hERG) potassium channel (human, UniProt Q12809) (assay: primary screen, population patch clamp on CHO cells stably expressing hERG).
Sequence of human ether-à-go-go-related gene (hERG) potassium channel (Q12809 whole entry, looked up): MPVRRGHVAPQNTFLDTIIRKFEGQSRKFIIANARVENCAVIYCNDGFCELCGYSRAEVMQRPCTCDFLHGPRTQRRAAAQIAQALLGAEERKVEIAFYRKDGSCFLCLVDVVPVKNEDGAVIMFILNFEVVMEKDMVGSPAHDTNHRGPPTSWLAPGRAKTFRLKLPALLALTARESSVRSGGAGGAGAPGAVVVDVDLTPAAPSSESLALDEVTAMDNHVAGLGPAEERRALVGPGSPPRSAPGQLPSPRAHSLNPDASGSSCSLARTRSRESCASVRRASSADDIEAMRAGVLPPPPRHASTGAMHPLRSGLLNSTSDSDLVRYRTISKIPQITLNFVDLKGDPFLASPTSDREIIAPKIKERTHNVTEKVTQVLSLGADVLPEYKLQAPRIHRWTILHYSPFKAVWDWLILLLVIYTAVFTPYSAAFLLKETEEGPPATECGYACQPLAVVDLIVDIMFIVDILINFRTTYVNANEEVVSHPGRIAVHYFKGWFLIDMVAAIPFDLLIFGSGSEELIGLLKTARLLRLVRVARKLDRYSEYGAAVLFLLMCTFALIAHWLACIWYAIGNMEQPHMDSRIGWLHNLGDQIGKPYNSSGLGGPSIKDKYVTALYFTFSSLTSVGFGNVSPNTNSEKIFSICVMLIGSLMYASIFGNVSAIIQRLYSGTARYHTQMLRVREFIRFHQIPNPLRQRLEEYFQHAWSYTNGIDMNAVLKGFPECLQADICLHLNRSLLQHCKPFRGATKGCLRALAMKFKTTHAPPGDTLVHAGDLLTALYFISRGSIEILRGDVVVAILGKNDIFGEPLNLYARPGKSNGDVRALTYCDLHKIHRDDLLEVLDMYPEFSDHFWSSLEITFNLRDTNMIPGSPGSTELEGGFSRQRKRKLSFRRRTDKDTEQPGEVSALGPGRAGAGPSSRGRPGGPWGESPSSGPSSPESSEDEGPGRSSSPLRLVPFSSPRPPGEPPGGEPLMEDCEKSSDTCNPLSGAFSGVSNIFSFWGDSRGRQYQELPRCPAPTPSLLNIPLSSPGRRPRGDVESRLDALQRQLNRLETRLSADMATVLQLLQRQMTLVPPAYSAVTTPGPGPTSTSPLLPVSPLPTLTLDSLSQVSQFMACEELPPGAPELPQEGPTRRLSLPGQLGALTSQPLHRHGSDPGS

| SMILES | hERG current change (%, negative = inhibition) at 1uM [%] |
| --- | --- |
| COC(=O)c1ccc(NC(=O)CSc2nnc(COc3c(C)cccc3C)o2)cc1 | 8.75 |
| Cc1ccc(-c2c(C(=O)O)c(C(=O)O)c3n2CSC3)cc1 | 10.1 |
| O=C(COC(=O)c1cncc(Br)c1)NC1CCCCCC1 | -4.91 |
| COC(=O)c1c(NC(=O)c2ccco2)sc2c1CC(C)(C)NC2(C)C | -3.4 |
| CN(C(=O)COC(=O)c1ccc2c(=O)n3c(nc2c1)CCC3)C1CCS(=O)(=O)C1 (stereo not shown) | 8.18 |
| O=C(CSc1nnc(CNC(=O)c2c(F)cccc2Cl)o1)Nc1ccccc1 | 6.11 |
| CC(C)Nc1ccc(-n2nc3ccccc3[n+]2[O-])cc1 | 9.55 |
| N#Cc1c(C(F)(F)F)cc(Cc2ccccc2)nc1SCC(=O)NCC(=O)O | 0.688 |
| COc1ccc(OC)c(NC(=O)CSc2nnc(-c3ccco3)n2-c2ccc(C(=O)O)cc2)c1 | -3.19 |
| COCCCNC(=O)C1CC(=O)OC1c1ccc(OC)c(OC)c1 (stereo not shown) | 1.68 |
| CC1(c2ccccc2Cl)NC(=O)N(CC(=O)Nc2cccnc2Cl)C1=O (stereo not shown) | 4.25 |
| C/C(Cc1ccccc1)=N\NC(=O)c1ccc(F)cc1 | 16.2 |
| COc1ccc(C(C)=O)cc1CSc1nnc2c(Cl)cc(Cl)cn12 | 6.65 |
| CN(C(=O)c1ccccc1)C1(C)CCS(=O)(=O)C1 (stereo not shown) | 1.51 |
| Cc1c(O)ccc(/C(Cc2ccc3ccccc3n2)=N\N)c1O | 11.3 |
| CC(C)NS(=O)(=O)c1ccc2c3c(cccc13)CC2 | 11.9 |
| CCN(CC)C(=O)CN1CCN(c2ncccn2)CC1.O=C(O)C(=O)O | 0.916 |
| COc1ccc(NC(=O)C2CCCN2C(=O)Oc2ccccc2)cc1 (stereo not shown) | 12.8 |
| c1ccc2c(CN3CCCCC3)c[nH]c2c1 | 6.25 |
| CC(C)(C)c1nnc(NC(=O)COc2ccc3c(c2)OCO3)s1 | 4.25 |
| COc1ccc(C2=NOC(CNC(N)=S)C2)cc1 (stereo not shown) | 3.37 |
| CC1(C)C=C2[C@H]3CC[C@@H]4[C@@]5(C)CCC(=O)C(C)(C)[C@@H]5CC[C@@]4(C)[C@]3(C)CC[C@@]2(C(=O)O)CC1 | 13.4 |
| O=C(Nc1ccnn1C1CCN(CCCc2ccccc2)CC1)c1ccccc1 | -70.9 |
| CS/C(=C\[N+](=O)[O-])Nc1ccc(OC(F)(F)F)cc1 | 8.9 |
| CCOc1ccc(N(CC(=O)N2CC=C(c3ccccc3)CC2)S(=O)(=O)c2c(C)noc2C)cc1 | 1.27 |
